Reference: the supplement of paper PMC8728848
The list shows a part of the results.

Tests used:
Test in all cases: glycan array binding signal (z-score within array); higher = stronger binding
Settings in all cases: glycan notation: IUPAC condensed, linker removed
[1] = target: Neu5Ac(a2-3)Gal
Procedure, shortened: (§1)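 From the Consortium for Functional Glycomics database, 3228 arrays were curated, keeping only those whose protein sequence was available. Binding is given as a within-array Z-score averaged across arrays sharing a protein sequence and across linkers. Negative Z-scores can be read as non-binding.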

[2] = target: Neu5Ac(a2-3)Gal(b1-3)GalNAc
Procedure, shortened: as §1

[3] = target: Neu5Ac(a2-3)Gal(b1-3)GalNAc(b1-3)Gal(a1-4)Gal(b1-4)Glc
Procedure, shortened: as §1

[4] = target: Neu5Ac(a2-3)Gal(b1-3)GalNAc(b1-4)[Neu5Ac(a2-3)]Gal(b1-4)Glc
Procedure, shortened: as §1

[5] = target: Neu5Ac(a2-3)Gal(b1-3)GalNAc(b1-4)[Neu5Ac(a2-8)Neu5Ac(a2-3)]Gal(b1-4)Glc
Procedure, shortened: as §1

[6] = target: Neu5Ac(a2-3)Gal(b1-3)GalNAc6S
Procedure, shortened: as §1

[7] = target: Neu5Ac(a2-3)Gal(b1-3)GlcNAc
Procedure, shortened: as §1

[8] = target: Neu5Ac(a2-3)Gal(b1-3)GlcNAc(b1-2)Man
Procedure, shortened: as §1

[9] = target: Neu5Ac(a2-3)Gal(b1-3)GlcNAc(b1-2)Man(a1-3)[GlcNAc(b1-4)][Neu5Ac(a2-3)Gal(b1-3)GlcNAc(b1-2)Man(a1-6)]Man(b1-4)GlcNAc(b1-4)GlcNAc
Procedure, shortened: as §1

[10] = target: Neu5Ac(a2-3)Gal(b1-3)GlcNAc(b1-2)Man(a1-3)[Neu5Ac(a2-3)Gal(b1-3)GlcNAc(b1-2)Man(a1-6)]Man(b1-4)GlcNAc(b1-4)GlcNAc
Procedure, shortened: as §1

[11] = target: Neu5Ac(a2-3)Gal(b1-3)GlcNAc(b1-3)Gal(b1-3)GlcNAc
Procedure, shortened: as §1

[12] = target: Neu5Ac(a2-3)Gal(b1-3)GlcNAc(b1-3)Gal(b1-4)GlcNAc
Procedure, shortened: as §1

[13] = target: Neu5Ac(a2-3)Gal(b1-3)GlcNAc(b1-3)GalNAc
Procedure, shortened: as §1

[14] = target: Neu5Ac(a2-3)Gal(b1-3)GlcNAc(b1-4)Gal(b1-4)Glc
Procedure, shortened: as §1

[15] = target: Neu5Ac(a2-3)Gal(b1-3)GlcNAc(b1-6)GalNAc
Procedure, shortened: as §1

[16] = target: Neu5Ac(a2-3)Gal(b1-3)GlcNAc6S
Procedure, shortened: as §1

[17] = target: Neu5Ac(a2-3)Gal(b1-3)[Fuc(a1-4)]GlcNAc
Procedure, shortened: as §1

[18] = target: Neu5Ac(a2-3)Gal(b1-3)[Fuc(a1-4)]GlcNAc(b1-3)Gal(b1-3)[Fuc(a1-4)]GlcNAc
Procedure, shortened: as §1

[19] = target: Neu5Ac(a2-3)Gal(b1-3)[Fuc(a1-4)]GlcNAc(b1-3)Gal(b1-4)[Fuc(a1-3)]GlcNAc
Procedure, shortened: as §1

[20] = target: Neu5Ac(a2-3)Gal(b1-3)[GlcNAc(b1-6)]GalNAc
Procedure, shortened: as §1

[21] = target: Neu5Ac(a2-3)Gal(b1-3)[Neu5Ac(a2-3)Gal(b1-4)]GlcNAc
Procedure, shortened: as §1

[22] = target: Neu5Ac(a2-3)Gal(b1-3)[Neu5Ac(a2-6)]GalNAc
Procedure, shortened: as §1

[23] = target: Neu5Ac(a2-3)Gal(b1-3)[Neu5Ac(a2-6)]GlcNAc(b1-3)[Fuc(a1-3)[Gal(b1-4)]GlcNAc(b1-6)]Gal(b1-4)Glc
Procedure, shortened: as §1

[24] = target: Neu5Ac(a2-3)Gal(b1-3)]Neu5Ac(a2-3)Gal(b1-4)]GlcNAc
Procedure, shortened: as §1

[25] = target: Neu5Ac(a2-3)Gal(b1-4)Glc
Procedure, shortened: as §1

[26] = target: Neu5Ac(a2-3)Gal(b1-4)GlcNAc
Procedure, shortened: as §1

[27] = target: Neu5Ac(a2-3)Gal(b1-4)GlcNAc(b1-2)Man
Procedure, shortened: as §1

[28] = target: Neu5Ac(a2-3)Gal(b1-4)GlcNAc(b1-2)Man(a1-3)[GlcNAc(b1-4)][Neu5Ac(a2-3)Gal(b1-4)GlcNAc(b1-2)Man(a1-6)]Man(b1-4)GlcNAc(b1-4)GlcNAc
Procedure, shortened: as §1

[29] = target: Neu5Ac(a2-3)Gal(b1-4)GlcNAc(b1-2)Man(a1-3)[Neu5Ac(a2-3)Gal(b1-4)GlcNAc(b1-2)Man(a1-6)]Man(b1-4)GlcNAc(b1-4)GlcNAc
Procedure, shortened: as §1

[30] = target: Neu5Ac(a2-3)Gal(b1-4)GlcNAc(b1-2)Man(a1-3)[Neu5Ac(a2-3)Gal(b1-4)GlcNAc(b1-2)Man(a1-6)]Man(b1-4)GlcNAc(b1-4)[Fuc(a1-6)]GlcNAc
Procedure, shortened: as §1

[31] = target: Neu5Ac(a2-3)Gal(b1-4)GlcNAc(b1-2)Man(a1-3)[Neu5Ac(a2-6)Gal(b1-4)GlcNAc(b1-2)Man(a1-6)]Man(b1-4)GlcNAc(b1-4)GlcNAc
Procedure, shortened: as §1

[32] = target: Neu5Ac(a2-3)Gal(b1-4)GlcNAc(b1-2)[Neu5Ac(a2-3)Gal(b1-4)GlcNAc(b1-4)]Man(a1-3)[GlcNAc(b1-4)][Neu5Ac(a2-3)Gal(b1-4)GlcNAc(b1-2)[Neu5Ac(a2-3)Gal(b1-4)GlcNAc(b1-6)]Man(a1-6)]Man(b1-4)GlcNAc(b1-4)GlcNAc
Procedure, shortened: as §1

[33] = target: Neu5Ac(a2-3)Gal(b1-4)GlcNAc(b1-2)[Neu5Ac(a2-3)Gal(b1-4)GlcNAc(b1-4)]Man(a1-3)[GlcNAc(b1-4)][Neu5Ac(a2-3)Gal(b1-4)GlcNAc(b1-4)Man(a1-6)]Man(b1-4)GlcNAc(b1-4)GlcNAc
Procedure, shortened: as §1

[34] = target: Neu5Ac(a2-3)Gal(b1-4)GlcNAc(b1-2)[Neu5Ac(a2-3)Gal(b1-4)GlcNAc(b1-6)]Man(a1-6)[Neu5Ac(a2-3)Gal(b1-4)GlcNAc(b1-2)Man(a1-3)]Man(b1-4)GlcNAc(b1-4)GlcNAc
Procedure, shortened: as §1

[35] = target: Neu5Ac(a2-3)Gal(b1-4)GlcNAc(b1-2)[Neu5Ac(a2-3)Gal(b1-4)GlcNAc(b1-6)]Man(a1-6)[Neu5Ac(a2-3)Gal(b1-4)GlcNAc(b1-2)Man(a1-3)][GlcNAc(b1-4)]Man(b1-4)GlcNAc(b1-4)GlcNAc
Procedure, shortened: as §1

[36] = target: Neu5Ac(a2-3)Gal(b1-4)GlcNAc(b1-3)Gal
Procedure, shortened: as §1

[37] = target: Neu5Ac(a2-3)Gal(b1-4)GlcNAc(b1-3)Gal(b1-3)GlcNAc
Procedure, shortened: as §1

B1: XL-35 (Xenopus laevis) (protein)
chain: MLVHILLLLVTGGLSQSCDPVVIVASKNMVKQLDCDKFRNCKEIKDSNEEAQDGIYTLTSPDGISYQTFCDMTTNGGGWTLVASVHENNMAGKCTIGDRWSSQQGNRADYPEGDGNWANYNTFGSAGGATSDDYKNPGYYDIEAYNLGVWHVPNKTPLSVWRNSSLQRYRTTDGILFKHGGNLFSLYRIYPVKYGIGSCSKDSGPTVPVVYDLGSANLTASFYSPGFRSQFTPGYIQFRPINTEKAALALCPGMKMESCNVEHVCIGGGGYFPEADPRQCGDFAAYDFNGYGTKKFNSAGIEITEAAVLLFYL
B1 was tested, and the “glycan array binding signal (z-score)” value [1] was -0.17, the “glycan array binding signal (z-score)” value [2] was -0.265 and the “glycan array binding signal (z-score)” value [3] was 0.104. For the same binder, the “glycan array binding signal (z-score)” value [4] was -0.105, the “glycan array binding signal (z-score)” value [5] was 0.436 and the “glycan array binding signal (z-score)” value [6] was -0.097. The “glycan array binding signal (z-score)” value [7] was -0.015, the “glycan array binding signal (z-score)” value [8] was -0.032 and the “glycan array binding signal (z-score)” value [9] was -0.234. The “glycan array binding signal (z-score)” value [10] was -0.181, the “glycan array binding signal (z-score)” value [11] was 0.073 and the “glycan array binding signal (z-score)” value [12] was -0.233. The “glycan array binding signal (z-score)” value [13] was -0.379, the “glycan array binding signal (z-score)” value [14] was -0.437 and the “glycan array binding signal (z-score)” value [15] was -0.059. For the same binder, the “glycan array binding signal (z-score)” value [16] was -0.218, the “glycan array binding signal (z-score)” value [17] was -0.204 and the “glycan array binding signal (z-score)” value [18] was 0.579. For the same binder, the “glycan array binding signal (z-score)” value [19] was -0.001, the “glycan array binding signal (z-score)” value [20] was -0.313 and the “glycan array binding signal (z-score)” value [21] was -0.101. For the same binder, the “glycan array binding signal (z-score)” value [22] was -0.335, the “glycan array binding signal (z-score)” value [23] was -0.257 and the “glycan array binding signal (z-score)” value [24] was -0.341. For the same binder, the “glycan array binding signal (z-score)” value [25] was -0.168, the “glycan array binding signal (z-score)” value [26] was -0.051 and the “glycan array binding signal (z-score)” value [27] was 0.501. For the same binder, the “glycan array binding signal (z-score)” value [28] was -0.603, the “glycan array binding signal (z-score)” value [29] was -0.022 and the “glycan array binding signal (z-score)” value [30] was -0.075. The “glycan array binding signal (z-score)” value [31] was -0.253, the “glycan array binding signal (z-score)” value [32] was 0.015 and the “glycan array binding signal (z-score)” value [33] was -0.229. The “glycan array binding signal (z-score)” value [34] was 0.329, the “glycan array binding signal (z-score)” value [35] was -0.09 and the “glycan array binding signal (z-score)” value [36] was -0.283. For the same binder, the “glycan array binding signal (z-score)” value [37] was 0.002.
